PubChem BioAssay AID2094 (Broad Institute, 2009)
Out of some 300,000 compounds screened, about 1,200 (0.4%) were called active. The shares of active, inactive and inconclusive entries below differ from those in the screen. Cut-off read from the data, not from the text of the source: active = activity change below about -75% (passing the limit was not always enough); inconclusive = no clear call, values can overlap the other calls.

Experiment: Vibrio harveyi AI-2 quorum sensing modulators, primary screen, JMH597 strain, luminescence/OD600 ratio (AID 2094);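 note: luminescence divided by OD600 gain over 9 h not by final OD600 alone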
Conditions: Vibrio harveyi JMH597 AI-2 luminescence/OD600 ratio, 9 h; at 7.5 µM; stronger effect = lower value; 0 = neutral-control median; strain lacks LuxN and CqsS sensors

Compound | activity change
Cc1ccsc1C(=O)Nc1nnc(-c2ccco2)o1 | active: -127%
Cc1ccc(OCC(=O)NNC(=S)NC(=O)C2CC2)c(C)c1 | inconclusive: -79.8%
CCOC(=O)[C@@H]1[C@H]2COc3ccccc3[C@H]2N2C(=O)N(c3ccc(C(F)(F)F)cc3)C(=O)[C@]12C | inconclusive: -11.5%
O=C(OCc1cc(Cl)ccc1OC(F)F)c1ccc([N+](=O)[O-])o1 | active: -99.2%
O=C(Nc1ccc(Cc2ccncc2)cc1)c1ccc([N+](=O)[O-])o1 | inconclusive: -77.5%
CC(OC(=O)/C=C/c1ccc2ccccc2n1)C(=O)NCc1ccccc1 (stereo unspecified) | inactive: 1.86%
CCCSc1nsc(NC(=O)c2cccnc2OCC)n1 | active: -94.8%
CN(Cc1ccccc1)C(=O)COC(=O)c1ccc(S(=O)(=O)N(C)C)cc1 | inconclusive: -75.1%
Clc1ccc(OCc2cc(-c3ccccc3)no2)cc1Cl | inconclusive: -76.8%
COc1ccccc1C(C[N+](=O)[O-])c1c(N)n(C)c(=O)n(C)c1=O (stereo unspecified) | inconclusive: -70.1%
Cc1ccc(CNC(=O)CN(C)S(=O)(=O)c2ccc3c(c2)n(C)c(=O)c(=O)n3C)cc1 | inactive: 20.3%
CN1CC(=O)N(CC(=O)Nc2ccc(SC(F)F)cc2)C1=O | active: -86.5%
O=C(CO/N=C/c1ccc(Cl)cc1Cl)NNC(=O)c1ccc(Cl)cc1Cl | active: -88%
COc1ccc(/C(N)=N/OC(=O)CCc2ccccc2)cc1 | inconclusive: -76.1%
CCCc1cc(C(=O)NNC(=S)NCc2ccccc2)cs1 | inconclusive: -63.4%
CCc1ccc(O)c(-c2cc(C(=O)Nc3cccnc3)[nH]n2)c1 | active: -94%
COCCCNC(=O)C(F)(F)C(F)(F)C(=O)NCCCOC | inconclusive: -89.1%
CCOC(=O)C1CCN(C(=O)COc2ccc(N(C)S(=O)(=O)c3cccs3)cc2)CC1 | inconclusive: -75.5%
N#Cc1ccc(NC(=O)Nc2ccc(Cl)cc2)cc1 | active: -147%
Oc1ccc(Br)cc1CNc1cnc2ccccc2c1 | active: -97.3%
COC(=O)N/N=C/c1ccc([N+](=O)[O-])o1 | inconclusive: -38.4%
CCN(CC)C(=O)c1sc(N)c(C(=O)OC(C)C)c1C | inconclusive: -87.8%
CCCCCCCCCCCCCCCCn1cc[n+](C)c1 | inconclusive: -73.5%
CN(C)S(=O)(=O)c1ccc(NC(=O)COc2ncnc3c2cnn3-c2ccccc2)cc1 | inconclusive: -74.8%

Compound | activity change
CC1=C(C(=O)c2ccccc2)C(c2ccc(OC(F)F)cc2)NC(=S)N1 (stereo unspecified) | inconclusive: -69.5%
CC(=O)c1ccc(C(=O)Nc2nnc(-c3ccc(Cl)cc3)o2)cc1 | inconclusive: -151%
O=C1COc2ccc(C(=O)COC(=O)c3ccc(Cl)cc3[N+](=O)[O-])cc2N1 | inconclusive: -0.706%
C=CCn1c(SCc2ccc(Br)cc2F)nc2cc(C(=O)O)ccc2c1=O | inconclusive: -98.1%
O=C(/C=C/c1ccc(F)cc1)NCc1ccco1 | inconclusive: -69.2%
O=C(/C=C/c1ccco1)Nc1ccc(Oc2ccccc2)cc1 | active: -83.2%
CC(=O)n1cc(C(C[N+](=O)[O-])SCCN)c2ccccc21 (stereo unspecified) | inconclusive: -59.5%
Oc1ccc(C2C=C(c3ccc(F)cc3)Nc3ncnn32)cc1 (stereo unspecified) | inactive: -13.8%
Cc1cccc(C(=O)NNC(=S)NC(=O)c2ccccc2)c1 | inconclusive: -122%
CCOc1ccc(-c2csc(NC(=O)c3cccc(N4C(=O)CCC4=O)c3)n2)cc1 | inactive: -7.63%
Cc1ccccc1-c1nc(C#N)c(NCc2ccco2)o1 | inconclusive: -68.6%
O=C(CCC(=O)Nc1ccc(Cl)cc1Cl)N/N=C/c1ccc([N+](=O)[O-])o1 | inconclusive: -67.4%
O=C(NNC(=O)c1ccc([N+](=O)[O-])o1)c1ccccc1 | inconclusive: -59.4%
Cc1ccc(C(=O)NCCc2c[nH]c3ccccc23)s1 | inconclusive: -71.9%
COc1ccc(-c2[nH]ncc2CNCC(C)(C)N2CCOCC2)cc1F | inactive: 2.69%
COc1ccc(/C=C/C(=O)c2ccc(O)cc2)cc1 | active: -92.9%
COc1ccc(S(=O)(=O)n2cccc2)cc1 | inconclusive: -78.6%
CN(C)S(=O)(=O)c1ccc(Oc2ccccc2)cc1 | active: -92.8%
Cc1ccc(CNc2oc(-c3cccs3)nc2C#N)cc1 | active: -94.3%
Cc1cc(C(=O)N/N=C/c2cc(Cl)cc([N+](=O)[O-])c2O)n[nH]1 | inconclusive: -89.4%
CC[n+]1c(/C=C2\Sc3ccccc3N2C)ccc2cccc(C)c21 | inconclusive: -91.8%
CCC(=O)Nc1ccc(Br)c(Cl)c1 | inactive: 3.64%
O=C(NNC(=S)NC(=O)c1ccccc1)c1ccc([N+](=O)[O-])cc1 | inconclusive: -72.1%
NCCc1c(-c2ccccc2)n(-c2ccccc2)c2ccccc12 | inactive: 4.53%

Compound | activity change
O=C1N[C@@H](Cc2cn(S(=O)(=O)c3ccc([N+](=O)[O-])cc3)c3ccccc23)C(=O)N[C@H]1Cc1ccccc1 | inactive: 11.2%
Cc1cccc(C(=O)NC(=S)NNC(=O)COc2ccc(Cl)cc2)c1 | inconclusive: -44.8%
Cc1cccc(CNCc2ccccc2)c1 | inconclusive: -33.3%
CC(C)c1ccc(/C=N/NC(=O)c2ccccc2Cl)cc1 | inconclusive: -71.3%
CCOc1cc(/C=N/NC(=O)c2c(-c3ccccc3)noc2C)ccc1O | inactive: 6.55%
Cc1ccc(C(=O)N/N=C\c2ccc([N+](=O)[O-])o2)cn1 | inconclusive: -91%
Cc1cc(Cl)ccc1NC(=S)NCCc1ccc(Cl)cc1 | inconclusive: -76.7%
Cc1cccc(NC(=S)NC2CCSc3ccccc32)c1 (stereo unspecified) | inactive: -5.45%
O=C(CCc1ccccc1)Nc1ccc(F)c([N+](=O)[O-])c1 | inconclusive: -59.7%
Cc1ccc(Cn2ncn(-c3ccccc3)c2=O)cc1 | inconclusive: -81.6%
Cc1cccc(/C=N/NC(=O)Cc2cccs2)c1 | inconclusive: -99.8%
CSc1ccc(Cl)c(C(=O)Nc2ccc(OCC(N)=O)cc2)c1 | inconclusive: -47.8%
Cc1ccc(CNC(=S)NC2CCCCC2)cc1 | inconclusive: -76.8%
CNC(=O)c1nnsc1S(=O)c1ccc(Cl)cc1 (stereo unspecified) | inconclusive: -74.8%
Clc1ccc(CSc2nc3ccncc3[nH]2)cc1 | inconclusive: -74.7%
Cc1ccsc1/C=N/NC(=O)CNC(=O)c1ccccc1 | inconclusive: -79.5%
O=C1C(CSCc2ccccc2)NC(=S)N1c1ccccc1 (stereo unspecified) | inconclusive: -61.9%
C=CCNC(=O)C1CCN(S(=O)(=O)c2ccc3ccccc3c2)CC1 | active: -80.9%
O=C(Nc1ccc(Br)cn1)c1ccc([N+](=O)[O-])o1 | inconclusive: -69.8%
CC(=O)Nc1ccc(S(=O)(=O)Nc2ccc(Nc3ccccc3)cc2)cc1 | inconclusive: -70.7%
O=C(Nc1nc2c(cc3c4c(cccc42)CC3)s1)c1ccccc1Cl | inactive: 20.9%
O=C(COc1ccc(Cl)cc1)N1CCN(S(=O)(=O)c2ccccc2)CC1 | inactive: 19.4%
O=C(Nc1ccccc1Cl)/C(Cl)=C(\Cl)S(=O)c1ccccc1 (stereo unspecified) | active: -84.8%
Clc1nssc1=Nc1ccc(Br)cc1 | inconclusive: -50.5%

Compound | activity change
S=c1[nH]cnc2scc(-c3ccccc3)c12 | inconclusive: -63.7%
O=C(c1ccco1)c1cn(CC(=O)N2CCCc3ccccc32)c2ccccc12 | inconclusive: -270%
COc1cccc(-c2csc(NNC(=O)c3cccs3)n2)c1 | inconclusive: -75.1%
COc1ccccc1CNC(=O)c1ccc(S(=O)(=O)N(C)C)cc1 | active: -79.6%
O=C(OCc1nnc(-c2ccccc2)o1)c1ccccc1 | inconclusive: -64.6%
O=C(Nc1nnc(C2CC2)o1)c1ccc(S(=O)(=O)N2CCCc3ccccc32)cc1 | inactive: 68.1%
Cc1onc(-c2ccccc2Cl)c1C(=O)NCc1nnnn1-c1ccc(F)cc1 | inactive: 3.91%
CC1=C(Cl)C2=NS(=O)(=O)CCN2C=C1Cl | inactive: 17%
O=C(CSC1=NS(=O)(=O)c2ccccc2N1)Nc1ccc(F)cc1 | inactive: -3.19%
Cc1nc2ccccn2c1C(=O)N/N=C/c1ccc([N+](=O)[O-])o1 | inconclusive: -82.5%
CCOc1ccc(OCCSc2nc3ccccc3o2)cc1 | inactive: 22.8%
O=C(/C=C/c1ccccc1)NNc1ccc(Cl)cc1 | active: -97.5%
N#Cc1cc(-c2ccccc2)cnc1Sc1ccc(Cl)cc1 | inactive: 6.67%
Cc1ccc(C(=O)CCC(=O)Nc2ncccc2O)cc1 | inconclusive: -74.3%
Cc1ccc2nc3n(c2c1)CCCN3 | inactive: 4.08%
Cc1ccc(O)c(NC(=O)Cc2ccc3ccccc3c2)c1 | inconclusive: -73.2%
Cc1nnc(SCCn2c(N3CCCCC3)nc3c2c(=O)n(C)c(=O)n3C)s1 | inactive: 12.6%
C(=N\Nc1ccccn1)/c1cccnc1 | inactive: 36.5%
Nc1cccc(C(=O)Nc2cccc3ncccc23)c1 | inconclusive: -31.3%
CCNc1nc(NCC)nc(C(=O)NN)n1 | inactive: 8.05%
C=CCn1c(SCC(=O)NC2CCCCC2)nc2ccccc2c1=O | inactive: 33.5%
COc1ccc(/C=C/c2nnc(NC(=O)CSc3ccc(C)cc3)s2)cc1 | inactive: 28.9%
O=c1[nH]n2c(C(F)(F)F)cc(C3CC3)nc2c1N=Nc1ccccc1 | inactive: 5.18%
O=C(CC1SC(N2CCCC2)=NC1=O)Nc1ccc(C(=O)Nc2ncccc2O)cc1 (stereo unspecified) | inactive: 16.2%
